Assay results from publication PMC7819943, “Rice protein-binding microarrays: a tool to detect cis-acting elements near promoter regions in rice”.
The other results are listed elsewhere or left out.

Target: T1, OsWOX13 (Oryza sativa, UniProt Q5QMM3 1-267)
T1 sequence: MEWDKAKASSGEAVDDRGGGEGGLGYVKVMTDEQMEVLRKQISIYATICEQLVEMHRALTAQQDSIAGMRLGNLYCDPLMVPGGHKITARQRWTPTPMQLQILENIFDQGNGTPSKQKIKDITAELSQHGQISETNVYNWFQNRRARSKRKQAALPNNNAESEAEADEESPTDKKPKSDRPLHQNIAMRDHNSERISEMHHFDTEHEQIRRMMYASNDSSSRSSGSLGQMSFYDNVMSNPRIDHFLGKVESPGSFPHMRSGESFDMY
Experiment: protein-binding microarray (RPBM); PBS, 2% BSA, 51.3 ng/ul salmon testes DNA, 50 uM zinc acetate, 200 nM TF, 25 C, 1 h; high values mean tight binding
Details: protein: recombinant; tags: N-terminal polyhistidine and DsRed monomer fusion (pET32a); label: CyDye5-dUTP incorporated in the synthesized complementary strand; 3' TTTTT single-stranded linker to array surface; dsDNA, one strand shown
Summary of the method: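 Binding signal is reported as fluorescence intensity per feature (arbitrary units) from an Axon 4000B scanner. Incubation used 200 nM of each Ni–NTA-purified, N-terminally polyhistidine- and DsRed-fused transcription factor from E. coli BL21-CodonPlus on a double-stranded custom Agilent array for 1 h at 25 °C, with 50 µM zinc acetate in the buffer, followed by washing.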

Sequence | binding signal
TAATTTTCTGAGTGATCAAATAATTGACCATAATTTTCCACGGAGTCACCTAGTGCAG | 8420 fluorescence intensity (a.u.)
AAAGATTTTGATTAGGACTTACATCAGATCAAACAAATCTCGGAGTCACCTAGTGCAG | 12700 fluorescence intensity (a.u.)
ACAGACTGACGACGTTTCATGACTGACTGTTTGACTTATCCGGAGTCACCTAGTGCAG | 10500 fluorescence intensity (a.u.)
ATCTAAATTTTGACTTCACCCTTATTTAGAACGATAAGTACGGAGTCACCTAGTGCAG | 5140 fluorescence intensity (a.u.)
GAGGGATGACAAATTGTTCAGTCAAACACGCTTCATGTAGCGGAGTCACCTAGTGCAG | 5210 fluorescence intensity (a.u.)
CTAGAATGTTGTAAAATTAATTTATTACTTACCTATAATGCGGAGTCACCTAGTGCAG | 10000 fluorescence intensity (a.u.)
AAAATACTCACAATTAATTATATGTAGTTAGCTTCTGTAACGGAGTCACCTAGTGCAG | 10000 fluorescence intensity (a.u.)
AACATCGACATGATTGATGCCTGCCAATTAGCTCAGGAGGCGGAGTCACCTAGTGCAG | 28200 fluorescence intensity (a.u.)
TTCGTGATAGTTTCGTGATAAATTTGGCACTAAATCTGCACGGAGTCACCTAGTGCAG | 10600 fluorescence intensity (a.u.)
GCTGATGACGTCCCTATCGGTTCTTATCTCAGTTCCTCCCCGGAGTCACCTAGTGCAG | 4130 fluorescence intensity (a.u.)
TAAATTTATCATTAAACAAACTATCATAATATACAACTCTCGGAGTCACCTAGTGCAG | 9070 fluorescence intensity (a.u.)
CGAATCCGGTGATTGTTACAGGAGGGTATTTGATCATGAACGGAGTCACCTAGTGCAG | 7910 fluorescence intensity (a.u.)
ACTTAATTTGATCTAGAATGTGCAGACAGTCTCTTGAACCCGGAGTCACCTAGTGCAG | 40800 fluorescence intensity (a.u.)
TTTGGTTAAAATTAAATTGTTTTAACTTTGATCAAGTTTACGGAGTCACCTAGTGCAG | 9070 fluorescence intensity (a.u.)
AATTGATTTATTTTGAAACAGAGAGAATACAGTTTATTTACGGAGTCACCTAGTGCAG | 32400 fluorescence intensity (a.u.)
TGCCAAGTCGCCGGTGCCTTGTCAATCAAGCTCCAGGTGGCGGAGTCACCTAGTGCAG | 3400 fluorescence intensity (a.u.)
TTGTAATTTCATTACTTAATGAAATCAACCCCATTATCCACGGAGTCACCTAGTGCAG | 18100 fluorescence intensity (a.u.)
AGTAATTACTAAACATTCCTACGAGCAGTTTCATCCAAAGCGGAGTCACCTAGTGCAG | 12400 fluorescence intensity (a.u.)
AATTGACTGGGTTGACGTTGTAGCCCGAGTTGCGAAATTCCGGAGTCACCTAGTGCAG | 11600 fluorescence intensity (a.u.)
TCCATATGCCCTGTCAATTATACACGGGCCAGAAAATCCTCGGAGTCACCTAGTGCAG | 5750 fluorescence intensity (a.u.)
ACTCACTTGATTTGTACTTTTACACAAGTTTATATTTGAGCGGAGTCACCTAGTGCAG | 20600 fluorescence intensity (a.u.)

Sequence | binding signal
CATATAATGGATTGTAATTAATACATGACTACATATGTTTCGGAGTCACCTAGTGCAG | 15100 fluorescence intensity (a.u.)
CCAAATTAATAAGGGTCAATTGGATCCATGGCAATATAAACGGAGTCACCTAGTGCAG | 3660 fluorescence intensity (a.u.)
TAAATTGCTGCGACATTAATTTCGCAGAGTTTCCCGGCAACGGAGTCACCTAGTGCAG | 4500 fluorescence intensity (a.u.)
CTCCATGATGAGTGAAGATAGGTAAAGTAACCAGGGCCTCCGGAGTCACCTAGTGCAG | 5660 fluorescence intensity (a.u.)
CCAAATTAATCACGACCGTCCATGTAGTTCTCCACCAACCCGGAGTCACCTAGTGCAG | 20400 fluorescence intensity (a.u.)
GGCTGTGATTGTGAGTTTGTGACCGAGACCTTAAGCTTATCGGAGTCACCTAGTGCAG | 12200 fluorescence intensity (a.u.)
TACGTTTTACAATCATCTAATTTACACTTATACTTCTATCCGGAGTCACCTAGTGCAG | 7020 fluorescence intensity (a.u.)
TTCATATGATGGATGCGGTTTCTGATGAGTTTGCATTTGGCGGAGTCACCTAGTGCAG | 5060 fluorescence intensity (a.u.)
GCTAAATGTTATTCACCGATTGTTTCCCAACTGTCAAGGTCGGAGTCACCTAGTGCAG | 3810 fluorescence intensity (a.u.)
CAACCAATCAAGCCTCTTCTTATTTAATTCTACATACTTTCGGAGTCACCTAGTGCAG | 11400 fluorescence intensity (a.u.)
AGCTAAATAAACAACTAACCATCATTGTAATTTCTGCACACGGAGTCACCTAGTGCAG | 5350 fluorescence intensity (a.u.)
ATCCCAAACTCGTAAATACTCGCGAACCCCGAGGGCGAAGCGGAGTCACCTAGTGCAG | 6310 fluorescence intensity (a.u.)
CTCATGATTAATTACGCTCTTTGAAATTTTATTGGAATTTCGGAGTCACCTAGTGCAG | 34800 fluorescence intensity (a.u.)
ACTGAAATTTTCATAATAAAATACCTCCGCTGACAGCTGACGGAGTCACCTAGTGCAG | 3320 fluorescence intensity (a.u.)
AAGCCTAATTAATCCGTTATTAGCAAATGTTTACTGTAGCCGGAGTCACCTAGTGCAG | 11300 fluorescence intensity (a.u.)
GAAGCTTAATTAGGCTCAAAAGATTGTCTCGCGGTTTCCACGGAGTCACCTAGTGCAG | 16200 fluorescence intensity (a.u.)
AAGGATAATTTACTAAGGTGGTTATCTCTGGTAATTAGTTCGGAGTCACCTAGTGCAG | 14200 fluorescence intensity (a.u.)
TTTAATAATTTGTTTATAAAAGAAACTAAAGGGCACTGCTCGGAGTCACCTAGTGCAG | 12200 fluorescence intensity (a.u.)
AATGTATACAAGTTGTTAATTAGCTTTCGAGATGTATTCACGGAGTCACCTAGTGCAG | 3210 fluorescence intensity (a.u.)
CGTGGTCAGTCAATCGGGATTTGAGATCTTCAGATTTACTCGGAGTCACCTAGTGCAG | 3270 fluorescence intensity (a.u.)
TCTTTTAAAATGGTGAAGTTAATTAGCTGGCTATCATATACGGAGTCACCTAGTGCAG | 5580 fluorescence intensity (a.u.)

Sequence | binding signal
ATTTGTGTTTTGATGATTGATAGTGTTTCGATCCAGAAGACGGAGTCACCTAGTGCAG | 26600 fluorescence intensity (a.u.)
ATAATGGACAATTTAAAACCTATTTACATCTCCAAATAACCGGAGTCACCTAGTGCAG | 10600 fluorescence intensity (a.u.)
TCTGATTGCATTCCATCTAACAGCCTCATCCTTTTGCTTACGGAGTCACCTAGTGCAG | 50700 fluorescence intensity (a.u.)
ACCGTAGCATAATTACAACTGACGCGTGAGTTGTCTGGATCGGAGTCACCTAGTGCAG | 3630 fluorescence intensity (a.u.)
CTTCCCCTGATGATTGGCCTGAAATGGATGCTCAGGAATTCGGAGTCACCTAGTGCAG | 17000 fluorescence intensity (a.u.)
GCATATAATTAGCCTCATTGGTGGTCCATGAAGCTCTCCCCGGAGTCACCTAGTGCAG | 17000 fluorescence intensity (a.u.)
TCTTCTAATATATTGACGTGCAATCCTTTTACGCGTTCGCCGGAGTCACCTAGTGCAG | 4860 fluorescence intensity (a.u.)
GAGAAATTGGAGCTGATCAACCGGAGAGCGCAAAGCCACCCGGAGTCACCTAGTGCAG | 3560 fluorescence intensity (a.u.)
CAAAATTGGAGATTCTCAGCTGAAAGGCTATCTAGCGGGCCGGAGTCACCTAGTGCAG | 10200 fluorescence intensity (a.u.)
AAAATTTAAATGATGGATAAAACCCATATAAATTTAAGATCGGAGTCACCTAGTGCAG | 9290 fluorescence intensity (a.u.)
TCCTACGTGATTGATGTGCTCATTAATTGTACTAGATAGACGGAGTCACCTAGTGCAG | 52100 fluorescence intensity (a.u.)
AACATAGACAGGAAATGGGACGGAAACGTCGTCCCAGTCTCGGAGTCACCTAGTGCAG | 4520 fluorescence intensity (a.u.)
CCTGATATGATGGTGAATTCATTGTTGATTCCCGATTCATCGGAGTCACCTAGTGCAG | 16000 fluorescence intensity (a.u.)
TCTTGACAGCTGGGGACATTTCCTTGGAAGTGATAATGCACGGAGTCACCTAGTGCAG | 19300 fluorescence intensity (a.u.)
TACAATTTAAATTTCTAACTTGTAAAAGTCAAATTCTTGTCGGAGTCACCTAGTGCAG | 6580 fluorescence intensity (a.u.)
AGTAATTATATGTGTAAGTGGGATGTAAGCGGGGTATAAACGGAGTCACCTAGTGCAG | 9300 fluorescence intensity (a.u.)
ACTAATTATAATATTGTCAATGTTTCATATTTTGGCTTTCCGGAGTCACCTAGTGCAG | 33700 fluorescence intensity (a.u.)
ATGATTTGTTTTCTTCCTCACCAAAACAAATCGTGTAATACGGAGTCACCTAGTGCAG | 12600 fluorescence intensity (a.u.)
ACACATGATTAGTCAAATCACGCATATATACGTGCTCGCCCGGAGTCACCTAGTGCAG | 39500 fluorescence intensity (a.u.)
GCAGATTGTAATATAATTTCCACGTCTTGATAGTTATGGTCGGAGTCACCTAGTGCAG | 28100 fluorescence intensity (a.u.)
CACATATTTAACAGTCCATCACACAGAGGACTTTATGTAACGGAGTCACCTAGTGCAG | 3770 fluorescence intensity (a.u.)

Sequence | binding signal
TGCCAATTATCCAAAAGTAATAGGACATGGCTGCGACCCTCGGAGTCACCTAGTGCAG | 23200 fluorescence intensity (a.u.)
ACTGATGAAATATCAAAGTGATTGTCAGACAAAGCGCCATCGGAGTCACCTAGTGCAG | 25800 fluorescence intensity (a.u.)
GACATATTATTAGATTGACAAAATGTGTTCAATATATATCCGGAGTCACCTAGTGCAG | 30900 fluorescence intensity (a.u.)
ATTAAATTTAGGATAATCTTTAAACCCTCGAATGTGAAGGCGGAGTCACCTAGTGCAG | 11900 fluorescence intensity (a.u.)
AATAAGATGATTAAGTTGTTAATGCCTTTTCTCCATGATGCGGAGTCACCTAGTGCAG | 12600 fluorescence intensity (a.u.)
ATAATGATGATTGTTTCTTTAACACATGGGCTATGTTTATCGGAGTCACCTAGTGCAG | 47200 fluorescence intensity (a.u.)
AATAATTAGCAAGAAACAGTGAGATGAATCTCTACTGTGGCGGAGTCACCTAGTGCAG | 21800 fluorescence intensity (a.u.)
AAAACATAATTTGGCTGAAATCCCTTTTCTTATCCCATCCCGGAGTCACCTAGTGCAG | 5960 fluorescence intensity (a.u.)
GAAATTATAATCTTAACTTATACTTTTACATATTTGTAATCGGAGTCACCTAGTGCAG | 8370 fluorescence intensity (a.u.)
TTTGATGATATGATCCCCTTAAGGGGTGTGCCTTTTATACCGGAGTCACCTAGTGCAG | 4230 fluorescence intensity (a.u.)
CGATAAATTTCAACGAAAATTTGACGAGCCTTTTGGCCAACGGAGTCACCTAGTGCAG | 6340 fluorescence intensity (a.u.)
AGCCAATCAGGTTTCAGGAGACACGTCCTAAACCGTGGGACGGAGTCACCTAGTGCAG | 11900 fluorescence intensity (a.u.)
TAATTATTAATTATTTTATTGTAATTTGTTTTATCATGAACGGAGTCACCTAGTGCAG | 9740 fluorescence intensity (a.u.)
TACTAATTATCTCCTCAGTATCTCATATATGTTTATGAAACGGAGTCACCTAGTGCAG | 12100 fluorescence intensity (a.u.)
GCCTAGTTGATTGAACATTCGTTTTCTTTCAACAAATAAGCGGAGTCACCTAGTGCAG | 17800 fluorescence intensity (a.u.)
CGTTGTGTAACTATAACTCTTATCTTCTAATATATTAACGCGGAGTCACCTAGTGCAG | 5450 fluorescence intensity (a.u.)
ACTAATTAATCCATCATTAGAAAATGTTCACTCTAGCACCCGGAGTCACCTAGTGCAG | 32400 fluorescence intensity (a.u.)
CATTCTATAAACGTGGTAATTTGCTAGTGGACACCGTGCCCGGAGTCACCTAGTGCAG | 3610 fluorescence intensity (a.u.)
CCACGTGGATTAATTGCTACTGGTTCAGTTGATCAGTTGCCGGAGTCACCTAGTGCAG | 12500 fluorescence intensity (a.u.)
ATATTATTGATAACAAATCACGTGTTACTGATATAAATCACGGAGTCACCTAGTGCAG | 11300 fluorescence intensity (a.u.)
GGTATATTGATCTGAATCATCTGGTACTATCAATTGTAGGCGGAGTCACCTAGTGCAG | 6430 fluorescence intensity (a.u.)
